# According to the supplement of paper PMC3334620:
# In all, about 33,000 sequences were measured (“E-score (-0.5 to 0.5)”: median about -0.021, highest 2% from about 0.32 on). The list shows a part of the results.
# Molecular target: T1, Zap1 (UniProt P47043)
# T1 sequence: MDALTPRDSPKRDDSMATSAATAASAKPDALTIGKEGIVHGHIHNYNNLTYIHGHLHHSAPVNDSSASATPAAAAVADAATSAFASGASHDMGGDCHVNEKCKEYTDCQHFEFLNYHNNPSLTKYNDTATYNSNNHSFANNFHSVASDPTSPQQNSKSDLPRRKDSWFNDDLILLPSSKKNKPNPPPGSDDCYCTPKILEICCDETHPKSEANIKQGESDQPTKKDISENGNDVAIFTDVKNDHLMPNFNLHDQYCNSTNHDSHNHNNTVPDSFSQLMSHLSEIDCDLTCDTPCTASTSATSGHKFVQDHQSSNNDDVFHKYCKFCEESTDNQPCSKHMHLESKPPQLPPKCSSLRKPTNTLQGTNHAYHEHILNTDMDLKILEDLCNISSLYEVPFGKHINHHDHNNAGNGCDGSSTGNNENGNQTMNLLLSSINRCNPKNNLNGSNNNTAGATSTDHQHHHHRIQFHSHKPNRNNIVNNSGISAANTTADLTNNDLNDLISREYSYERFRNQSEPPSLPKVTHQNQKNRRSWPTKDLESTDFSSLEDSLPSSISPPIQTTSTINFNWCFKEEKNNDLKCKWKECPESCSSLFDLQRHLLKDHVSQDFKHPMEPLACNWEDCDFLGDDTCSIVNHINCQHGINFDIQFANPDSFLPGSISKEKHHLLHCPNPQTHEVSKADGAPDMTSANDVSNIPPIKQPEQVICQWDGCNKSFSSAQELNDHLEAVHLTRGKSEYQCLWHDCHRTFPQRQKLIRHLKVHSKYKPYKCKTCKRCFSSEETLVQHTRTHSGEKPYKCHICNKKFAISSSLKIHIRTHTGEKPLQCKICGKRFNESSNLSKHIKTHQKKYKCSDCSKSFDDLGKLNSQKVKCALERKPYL
# Assay: PBM E-score (8-mer binding enrichment) (E-score (-0.5 to 0.5)); higher = stronger / more preferred TF binding; most listed sequences are background and not binding sites
# Conditions: protein concentration: 200 nM; construct: GST-full length
# How it was run: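 E-scores (a modified Wilcoxon-Mann-Whitney statistic) were assigned by the Universal PBM Analysis Suite to every ungapped eight-base word pooled with its reverse complement. The input came from universal all-10-mer Agilent arrays made double-stranded by primer extension and probed with GST-tagged yeast transcription factors at about 100-200 nM. Fluorescent anti-GST detected bound protein, and masliner normalised the scans.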
row,Sequence,PBM E-score
1,TATCCGGA,0.0937
2,CCACAACG,0.0128
3,GCCGTAAA,0.0721
4,GCCATGCA,-0.115
5,ATTCTTTA,0.0765
6,CATCCACG,0.0264
7,CAATCGTG,-0.131
8,CCGGGGCG,0.0268
9,CCTAATAC,0.0529
10,ACGGAACG,-0.172
11,ACTAGTTA,0.104
12,GTCTAGTA,0.205
13,ATGGCTGC,-0.0665
14,TCAGAAGA,-0.157
15,CTTATAAA,0.0799
16,CGCAAACA,0.0305
17,CAAATAGC,-0.0959
18,CTCCTGTA,-0.0674
19,CCCCTTGC,-0.0145
20,CAGTGGCC,0.0773
21,ACGACCGC,-0.0278
22,CATAATAG,0.0641
23,CGGGCAAC,-0.226
24,GTACCACA,0.282
25,AGCTTCAT,-0.0699

row,Sequence,PBM E-score
1,CGACCCGC,-0.0198
2,CCATATCA,-0.0321
3,GTTTTTTA,0.257
4,ACGCCTGG,-0.118
5,CCGGTAGG,0.0542
6,GCTTCTCA,-0.212
7,CACTCGGC,-0.179
8,AACTACTC,0.0879
9,CCTCGGGA,-0.0412
10,AGTCTTTC,-0.227
11,ATGCACCA,-0.0934
12,AACTTTAC,-0.0435
13,AAGCGAAT,-0.0307
14,GGATACCC,0.393
15,CGCGTCCA,-0.232
16,CGCCTTTC,-0.157
17,ATAAATGA,0.126
18,TAATTGAA,0.0645
19,AGACGAAA,0.0482
20,CCAGCGCC,-0.276
21,CGAGATCG,-0.114
22,GATCCCGC,-0.0967
23,AATCCCAT,-0.0451
24,CCGAGTCC,-0.129
25,AAGATGCA,0.0988

row,Sequence,PBM E-score
1,ACGGTACC,0.399
2,ATGTACAA,0.114
3,ACAATATA,0.176
4,CTCCAGTA,-0.049
5,CTATGCAA,0.00525
6,CGCTCCTC,-0.311
7,ACTGCCAT,0.113
8,TAACCAGA,0.314
9,CGTTCCGA,-0.0199
10,ACCGGGAT,-0.00572
11,ACCCTACG,0.361
12,AGTCATAC,-0.0188
13,GCACATCC,-0.0416
14,GTCGCAAA,-0.0278
15,GGGAGGCA,-0.289
16,ATCCTCTC,-0.0369
17,AGGCTGTA,0.00164
18,ACAAAGAT,0.0424
19,CGTACCCC,0.18
20,ACATTATC,-0.0315
21,AATTCCTA,0.0396
22,CTAGGCAG,-0.185
23,CCACAACA,0.109
24,ACACCGGT,0.0627
25,ACATGGAA,0.0796

row,Sequence,PBM E-score
1,GAGTCACA,0.03
2,CGACCAGC,0.0699
3,TCCTACGA,-0.09
4,TTCCCGAA,0.0883
5,AAGCTCTC,-0.0774
6,AGTGGGGA,-0.104
7,ACTGTGTA,5e-05
8,ATATTTTG,0.102
9,AGTTACTC,0.082
10,ACGCTATA,-0.066
11,ATATATAA,0.249
12,CCTTTTAG,0.308
13,AAATTGAC,0.0363
14,CCCGTATA,0.0661
15,ATGTCTCA,-0.0296
16,ATGCGAGC,-0.223
17,CCACACTC,-0.098
18,ACTCTGCT,-0.322
19,GCACGTAC,-0.297
20,ACACTTTC,-0.104
21,ATACAAAA,0.28
22,ACAAAGAC,0.217
23,GCTGTGTA,-0.108
24,CTCTAAGC,-0.0361
25,CCCCCTCA,-0.406

row,Sequence,PBM E-score
1,CATAGGGA,-0.2
2,CCGAATAG,0.0614
3,CATCAGTC,-0.338
4,ACCTAGGC,-0.26
5,ACCCCAAC,0.302
6,ACGCAGTG,-0.166
7,ACGTGGAT,-0.0971
8,GAACAAAA,0.218
9,CACTATCA,-0.0362
10,TCTTTGAA,-0.005
11,CCCACATA,-0.0573
12,ATTTCTAG,0.242
13,ACCCAGGA,0.114
14,CAGTTCAA,-0.12
15,AACCAAAA,0.364
16,CGCTCCGC,-0.332
17,CCAGCACA,-0.00996
18,GTAGTGAA,0.105
19,TAGGCTAA,-0.0546
20,CACGCGAA,-0.152
21,CACAAGTG,-0.211
22,AATCTGCA,-0.0649
23,ATCCTTTA,0.092
24,ATTTATGA,0.107
25,GTGTATGA,-0.0526

row,Sequence,PBM E-score
1,ATGATCGG,-0.0148
2,ACGGTTAA,0.258
3,AGAGGTAT,0.311
4,AAATTATC,0.215
5,CGTTTGAC,-0.0377
6,GTGTAGGA,-0.0469
7,AGATTGAC,-0.0527
8,GACGTAAC,0.195
9,AGCAGAAG,-0.196
10,ACAGGCGC,-0.335
11,GAAGGATA,-0.106
12,GAGCGCAA,-0.0826
13,TCGTATCA,-0.0428
14,GCGGGTTA,0.366
15,CGAGTCAC,0.0483
16,CCGCGAGA,-0.166
17,AGTCTTAA,-0.226
18,CCATAACA,0.19
19,CCCAGAAC,0.221
20,AGCGCGAC,0.0568
21,ATTTCTAA,-0.0928
22,ACCGCTCG,0.0486
23,CTAGCTAA,-0.0794
24,GTTGAGTA,-0.02
25,ATTGGGTC,0.109

row,Sequence,PBM E-score
1,AATCCTAC,-0.161
2,AGTCCAGC,-0.158
3,CATCAAGC,-0.0639
4,ATTCGGCA,-0.17
5,AACATTCC,-0.289
6,CGATTCCA,-0.193
7,GGCCGCCC,-0.0965
8,AAGCGTCA,-0.00741
9,GGTTAACC,0.427
10,AACCTTTG,0.377
11,ATGAAACC,0.151
12,CGAGGTTC,0.22
13,AATTGTGA,0.0817
14,CGGAGTTC,0.0089
15,AGTCCCAA,0.0837
16,TGTGAGAA,-0.0687
17,GAGAGTCA,-0.0419
18,TCCACCCA,-0.233
19,ACGGGATC,-0.164
20,TAAGTCTA,-0.121
21,GCACTGAA,-0.136
22,ATGTAGTA,0.155
